# Assay results taken from ChEMBL document CHEMBL1157539, “Thousands of chemical starting points for antimalarial lead identification” (Nature, 2010).
# Several values for one entry are separate records, joined by “and”; a condition that tells them apart may be missing. Equal entries are not always repeated. The full ranking holds about 13,000 compounds; the median of “IFI” is about 4, and the highest 2% start at about 17. Some of the results follow.
# Assay: GSK_TCMDC: Inhibition Frequency Index (IFI). The number of non-kinase HTS assays where a compound showed > 50 % inhibition, expressed as a percentage of the number of such assays in which the compound was tested (-0 is zero)
# Type: functional
row,SMILES,IFI
1,NC(=O)c1ccccc1OCC(=O)Nc1ccc(-c2cccc(-c3nc4cc(C(F)(F)F)ccc4[nH]3)c2)cc1,4.39%
2,CN(CC(=O)Nc1cc(C(F)(F)F)ccc1-n1cncn1)Cc1ccc2ccccc2c1,2.82%
3,N=C(N)Nc1nc(-c2cccc(NC(=O)NCc3cccc4ccccc34)c2)cs1,3.1%
4,CNCCCNCc1ccc(-c2ccc(F)c(Cl)c2)o1,2.78%
5,O=C(Cn1c(CCc2cccc(F)c2F)cc(=O)c2ccccc21)N(CCN1CCCCC1)Cc1ccc(-c2ccc(C(F)(F)F)cc2)cc1,3.62%
6,O=C(Nc1ccc(-c2nc3ccc(NC(=O)c4ccc(Br)cc4)cc3[nH]2)cc1)c1ccc(Br)cc1,3.01%
7,O=C(CC(c1ccccc1)c1ccccc1O)N1CCOCC1 (centres undefined),-0%
8,NC1CCN(Cc2ccc(-c3ccc(-c4nc5ccccc5[nH]4)cc3)cc2)C1 (centres undefined),4.29%
9,Oc1cccc(Nc2nc(NCc3ccco3)c3ccccc3n2)c1,7.91%
10,CN1CC[C@@H](Oc2cc(C(=O)NCc3ccc(Cl)c(Cl)c3)ccc2C(F)(F)F)C1,6.56%
11,O=C(NCCc1ccccc1)N(Cc1ccc(-c2cccc(CN3CCNCC3)c2)cc1)C1CCN(Cc2ccccc2)CC1,6.67%
12,CN1CCN(CC(=O)Nc2cccc(-c3ccc(-c4nc5cc(C(F)(F)F)ccc5[nH]4)s3)c2)CC1,7.14%
13,Cc1cccc2nc(-c3ccc(-c4cccc(CNCCNC(=O)c5ccnn5C)c4)s3)[nH]c12,2.02%
14,Cc1ncsc1CCN1C(=O)CC2(C1=O)C(=O)N(Cc1ccccc1)c1ccc(Cl)cc12 (centres undefined),1.72%
15,O=C(Nc1ccccc1O)C1CCN(c2ncnc3cc(-c4ccc(F)cc4)sc23)CC1,-0%
16,Oc1ccc(CCNc2nc(NCCCOc3ccccc3-c3ccncc3)nc(N3CCNCC3)n2)cc1,1.72%
17,COc1cc(NC2=C(c3ccccc3)C(=O)c3ccccc32)ccn1,0.72%
18,O=C(N/N=C/c1nc2ccccc2[nH]1)c1cccc([N+](=O)[O-])c1,-0%
19,Oc1cc(-c2nc(C3(CNCc4ccc(Cl)cc4)CCCCC3)[nH]c2-c2ccncc2)ccc1Cl,11.6%
20,COc1ccc2c(=NN=Cc3ccccc3Cl)cc(C)[nH]c2c1,3.65%
21,O=C(Nc1cccc(-c2cccc(-c3nc4ccccc4[nH]3)c2)c1)NC1CC1c1ccccc1 (centres undefined),2.04% and 3.06%
22,C=CCc1ccc(C[C@H](NC(=O)OC(C)(C)C)C(=O)OC)cc1,18.9%
23,O=[N+]([O-])c1cccc(C=NNc2nc(=Nc3ccccc3)[nH]c(=Nc3ccccc3)[nH]2)c1,5.04%
24,CCN(CC)CCN(Cc1ccc(-c2ccc(C(F)(F)F)cc2)cc1)C(=O)Cn1c(CCc2ccccc2F)nc(=O)c2ccccc21,8.76%
